# Laboratory results taken from the supplement of paper PMC10126150.
# Sequences with one replicate were seen in a single cluster, so their values are uncertain.
# Test system: ATP
# Test: switch fluorescence ratio, 500 uM ATP over buffer (Cy3 cluster intensity, sum of 5 cycles each) (fold (ratio)); higher = stronger signal-on switching upon ATP binding; sequences stand for … in TCGTCGGCAGCGTCAGATGTGTATAAGAGACAGTTTTTTTTTTTTTTTTTTTTTTTTT…TC
# Settings: aptamer strand: ATP DNA aptamer (quencher-CACCTGGGGGAGTATTGCGGAGGAAGG + anchor), 100 nM annealed; ATP concentration: 500 uM; one replicate
# In short: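 Switching-strand clusters labelled with Cy3 on a modified Illumina MiSeq flow-cell were annealed to 100 nM quencher-labelled ATP aptamer, imaged in selection buffer, and re-imaged after 15 min with 500 uM ATP at 22 °C. This was done over five cycles with NaOH stripping and re-annealing in between. The fluorescence ratio is summed target-cycle over summed buffer-cycle Cy3 intensity per cluster, averaged per switch-domain sequence, excluding clusters outside 100-1000 RFU.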
# 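Further: ATP exposure 15 min at 22 °C before imaging.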
row,Sequence,switch fluorescence ratio
1,GCAAGAGA,1.02
2,GCAAGAGAAT,0.955
3,GCAAGAGTCG,1.25
4,GCAAGGCGGG,0.942
5,GCAAGGTATG,1.06
6,GCAAGGTCAC,1.07
7,GCAAGTAACG,1.05
8,GCAAGTAGGT,1.04
9,GCAAGTTCGG,0.995
10,GCAATATGCG,1.07
11,GCAATCGTTG,1.09
12,GCAATCTCGC,2.81
13,GCAATGTATT,1.01
14,GCAATGTCAC,2.65
15,GCAATTCGCC,4.03
16,GCAATTGATC,1.33
17,GCAATTGCTT,0.984
18,GCAATTGGCA,1.01
19,GCAATTTTC,1.29
20,GCACAAAGGG,1.01
21,GCACACCTAA,1.09
22,GCACAGCTTA,1.04
23,GCACATGAGC,0.953
24,GCACATGTCG,0.938
25,GCACCCAAGA,1.07
26,GCACCGGACA,1.18

row,Sequence,switch fluorescence ratio
1,GCACCTCGGT,1.05
2,GCACGAGCGA,1.13
3,GCACGATG,1.01
4,GCACGCCCGT,1.06
5,GCACGCGATC,3.64
6,GCACGGCACG,1.04
7,GCACGGTCTC,1.05
8,GCACGTAGC,1.1
9,GCACGTCCGA,1.09
10,GCACTAAAG,0.987
11,GCACTAGCTA,0.995
12,GCACTCAGTG,1.01
13,GCACTGAAAG,0.978
14,GCAGACACGA,1.05
15,GCAGACAGTT,1.03
16,GCAGACGGGC,0.962
17,GCAGATTGTA,0.966
18,GCAGCATGCG,1.01
19,GCAGCCCAGG,1.1
20,GCAGCCCCGT,1.07
21,GCAGCCGAGG,0.969
22,GCAGCTACAA,1.05
23,GCAGCTGGAT,0.971
24,GCAGCTTCTT,0.989
25,GCAGGGCT,1.03
26,GCAGGGCTTT,0.999

row,Sequence,switch fluorescence ratio
1,GCAGGGGAGA,1.04
2,GCAGGGGAGC,1.06
3,GCAGGGGCTT,1.03
4,GCAGGGTTAA,0.982
5,GCAGGTCGGG,0.974
6,GCAGTAGTTC,1.13
7,GCAGTATAGT,1.01
8,GCAGTCATGG,0.988
9,GCAGTGGATC,0.991
10,GCAGTGGCAA,1.01
11,GCAGTTCAAC,0.998
12,GCAGTTGCAA,0.988
13,GCAGTTTATT,0.989
14,GCATAAGCCT,1.08
15,GCATAAGGCC,1.03
16,GCATAATTAG,1.02
17,GCATACGGAT,1.02
18,GCATATGCAG,1
19,GCATATGCGC,0.998
20,GCATCCAGC,0.991
21,GCATCTTCTG,0.954
22,GCATGATATC,1.07
23,GCATGCGGGT,1.01
24,GCATGCTGCG,1.01
25,GCATGGGAAG,1.01
26,GCATGGGATA,0.99

row,Sequence,switch fluorescence ratio
1,GCATGGTTGC,0.996
2,GCATGTAGGT,1
3,GCATGTGAGG,1.01
4,GCATGTGGAA,1
5,GCATGTTTCT,1.05
6,GCATTAGTCT,0.993
7,GCATTCAACA,0.988
8,GCATTCACTC,1.44
9,GCATTCCCGG,1.19
10,GCATTCCTTA,1.03
11,GCATTCTTGG,0.963
12,GCATTGGCTT,0.98
13,GCATTGGGCT,0.997
14,GCATTGGTTG,1.02
15,GCATTGTATT,0.964
16,GCATTTGTCA,0.992
17,GCCAAAAGTT,1.05
18,GCCAAATTAC,1.43
19,GCCAACGCGC,1.15
20,GCCAATCTT,0.968
21,GCCAATGGAA,1.05
22,GCCAATTCGC,1.08
23,GCCACATGA,1
24,GCCACCATTT,0.97
25,GCCAGCTGCG,0.982
26,GCCAGGGGCC,1.01

row,Sequence,switch fluorescence ratio
1,GCCATAAAGT,1.02
2,GCCATACTGT,1.09
3,GCCATCGTTC,0.976
4,GCCATCTGGA,1.01
5,GCCATGCTCG,0.985
6,GCCCAAGAGG,1.03
7,GCCCAAGTTG,1.12
8,GCCCAGGTGA,1.32
9,GCCCATGG,1.11
10,GCCCCGGGG,1.07
11,GCCCCTCAA,1.12
12,GCCCCTCCAT,1.1
13,GCCCCTGTAC,1.88
14,GCCCGATTTA,1.39
15,GCCCGGAATT,1.12
16,GCCCGGATGT,1.04
17,GCCCGGCGTC,0.972
18,GCCCTATGA,1.02
19,GCCCTCGGGA,1.02
20,GCCCTGCCCT,0.991
21,GCCCTTAGCC,1.03
22,GCCGAAGCT,1.03
23,GCCGAATTAG,1.01
24,GCCGACACTA,1.13
25,GCCGACAGCG,1.02
26,GCCGACCGGG,0.985

row,Sequence,switch fluorescence ratio
1,GCCGAGGATA,1.03
2,GCCGAGTAGG,1
3,GCCGATATCC,1.04
4,GCCGATCATT,1
5,GCCGCGAACG,1.23
6,GCCGCGGTGG,1.01
7,GCCGCTGAGT,0.99
8,GCCGGACAAG,1.01
9,GCCGGAGTAA,3
10,GCCGGATTTT,1.02
11,GCCGGCAGT,1.02
12,GCCGGCCTGG,0.997
13,GCCGGCGAAA,0.98
14,GCCGGCTA,1.02
15,GCCGGGT,1.14
16,GCCGGGTAGA,1.04
17,GCCGGTGGGA,1.03
18,GCCGGTTCCT,1.03
19,GCCGTAAAGG,0.964
20,GCCGTACCGC,1.01
21,GCCGTCGGGT,1.02
22,GCCGTGACTG,0.996
23,GCCGTGATGG,1.04
24,GCCGTGGCGA,1.03
25,GCCGTTCTGG,0.967
26,GCCTAAAGGC,0.967

row,Sequence,switch fluorescence ratio
1,GCCTAATTCG,0.984
2,GCCTACGTAG,0.988
3,GCCTACTTTT,1.01
4,GCCTAGGAGC,1.07
5,GCCTCAGCCA,1.31
6,GCCTCATAAC,1.08
7,GCCTCCATTT,1.01
8,GCCTCGCGAG,1.01
9,GCCTCTTACG,1.04
10,GCCTCTTCAT,0.996
11,GCCTGAAGCC,1.03
12,GCCTGATGTG,1.01
13,GCCTGCCGGC,1.05
14,GCCTGTGCGC,1.07
15,GCCTTCCCCA,2.78
16,GCCTTCTTTT,0.973
17,GCCTTGCAAT,1.19
18,GCCTTGTTGA,0.986
19,GCCTTTTGAC,1.05
20,GCGAACCTGA,1.51
21,GCGAAGCCCC,1.01
22,GCGACACGTA,1.08
23,GCGACATCTA,1.01
24,GCGACATTCT,1
25,GCGACGATTA,1.2
26,GCGAGAAAAC,0.998

row,Sequence,switch fluorescence ratio
1,GCGAGAGCGG,0.989
2,GCGAGAGGGG,1
3,GCGAGCAGTT,0.961
4,GCGAGCGAGC,0.951
5,GCGAGCTAAA,1.04
6,GCGAGCTAGA,0.986
7,GCGAGTATTT,1.01
8,GCGATAGTTT,1.05
9,GCGATCAAAA,1.02
10,GCGATCATAG,1.02
11,GCGATCCAGC,1.01
12,GCGATGCGTC,1.04
13,GCGATTAAAA,0.988
14,GCGATTATCG,1.02
15,GCGATTCTGT,1.03
16,GCGCAAACTA,1.04
17,GCGCAAAGAT,0.985
18,GCGCAAAGCC,1.03
19,GCGCAACCCA,0.979
